# Among all 310,000 compounds or so, about 2,200 (0.71%) showed an effect of 50% or more. Effects have a minus sign here. This is one part of the list.
# Biological target: human ether-à-go-go-related gene (hERG) potassium channel (human, UniProt Q12809)
# Assay: primary screen, population patch clamp on CHO cells stably expressing hERG
# human ether-à-go-go-related gene (hERG) potassium channel, sequence (Q12809 whole entry, looked up): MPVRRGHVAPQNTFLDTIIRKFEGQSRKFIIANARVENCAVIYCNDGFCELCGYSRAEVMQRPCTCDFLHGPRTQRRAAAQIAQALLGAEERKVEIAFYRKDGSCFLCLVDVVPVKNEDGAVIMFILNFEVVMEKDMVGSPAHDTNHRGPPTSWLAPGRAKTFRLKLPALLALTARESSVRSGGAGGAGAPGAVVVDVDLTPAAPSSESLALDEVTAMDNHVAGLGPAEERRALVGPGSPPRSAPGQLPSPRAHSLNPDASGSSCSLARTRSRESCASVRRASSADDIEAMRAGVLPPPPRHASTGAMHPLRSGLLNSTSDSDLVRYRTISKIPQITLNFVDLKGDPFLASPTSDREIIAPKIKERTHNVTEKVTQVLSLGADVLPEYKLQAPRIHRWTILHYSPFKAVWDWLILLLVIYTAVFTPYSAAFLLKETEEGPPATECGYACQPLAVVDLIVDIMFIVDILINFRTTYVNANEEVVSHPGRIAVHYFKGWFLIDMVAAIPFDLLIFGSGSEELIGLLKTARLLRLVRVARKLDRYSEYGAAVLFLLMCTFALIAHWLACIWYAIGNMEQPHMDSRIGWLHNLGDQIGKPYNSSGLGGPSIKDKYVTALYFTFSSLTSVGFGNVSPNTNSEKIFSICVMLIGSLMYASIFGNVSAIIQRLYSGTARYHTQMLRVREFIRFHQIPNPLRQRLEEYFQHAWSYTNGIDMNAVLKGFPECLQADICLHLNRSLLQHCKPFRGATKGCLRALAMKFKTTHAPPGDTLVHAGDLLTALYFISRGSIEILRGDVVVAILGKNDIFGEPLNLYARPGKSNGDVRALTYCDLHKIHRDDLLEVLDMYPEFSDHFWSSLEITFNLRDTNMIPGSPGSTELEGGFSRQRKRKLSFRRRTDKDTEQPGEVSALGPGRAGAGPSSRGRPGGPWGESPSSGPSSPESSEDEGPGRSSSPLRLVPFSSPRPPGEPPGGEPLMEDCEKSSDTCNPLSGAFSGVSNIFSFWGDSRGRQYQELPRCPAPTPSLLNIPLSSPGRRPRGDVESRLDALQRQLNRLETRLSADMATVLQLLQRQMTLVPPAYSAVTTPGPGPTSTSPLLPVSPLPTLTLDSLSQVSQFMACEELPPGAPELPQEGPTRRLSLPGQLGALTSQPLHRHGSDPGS
row,Compound,"hERG current change (%, negative = inhibition) at 1uM"
1,O=C(/C=C/c1ccc(Cl)c([N+](=O)[O-])c1)c1cccnc1,8.02%
2,COC(=O)C1=C(C)N(Cc2ccccc2)C(=O)N[C@H]1c1ccccc1,4.87%
3,CCCCN(C(=O)c1ccc([N+](=O)[O-])s1)c1c(N)n(CC(C)C)c(=O)[nH]c1=O,17.3%
4,O=C(Nc1ccccc1)[C@@H]1CC=C[C@@H]2CCN(C3CCCCC3)C(=O)[C@@H]21,12.3%
5,Cc1cccc(OCCC(=O)OCC(=O)Nc2c(C)nn(-c3ccccc3)c2C)c1,-12.2%
6,Fc1ccc2c(c1)nnn2C1CCN(Cc2c(Cl)cccc2Cl)CC1,13.1%
7,COc1ccc(CN(C)C2CCCCC2)c(C)c1C,0.0703%
8,O=C(Nc1ccc(N2C(=O)c3cccc4cccc(c34)C2=O)cc1)c1ccc(N2CCCCC2)c([N+](=O)[O-])c1,10.3%
9,Cc1ccc(C2CC(=O)NC(SCCC(C)C)=C2C#N)cc1 (stereo not shown),-5.25%
10,Cc1cccc(CSc2nc3[nH]ncc3c(=O)[nH]2)c1,5.01%
11,Cc1n[nH]c(C)c1S(=O)(=O)N1CCCC(C(=O)NC2CCCCC2)C1 (stereo not shown),13.7%
12,CC(NS(=O)(=O)c1ccc2c(c1)oc(=O)n2C)c1ccccc1 (stereo not shown),9.67%
13,Cn1ccnc1SCC(=O)c1ccc(C#N)cc1,5.55%
14,CCn1c(CNC(=O)Cc2ccc(OC)cc2)nnc1SCC(=O)Nc1ccc(C(=O)O)cc1,13.5%
15,O=C(Nc1ncn[nH]1)c1ccccc1Br,2.11%
16,CC(C)NS(=O)(=O)c1ccc(NC(=O)C2CCCCC2)cc1,13.3%
17,Cc1ccc(-c2noc(CCC(=O)N3CCCc4ccccc43)n2)cc1,0.398%
18,O=C(CCCc1c[nH]c2ccccc12)NCc1ccccc1C(F)(F)F,14.4%
19,Cc1cccc(N(C(=O)CCC(=O)Nc2nccs2)C(C(=O)NC(C)(C)C)c2ccc(O)cc2)c1 (stereo not shown),4.6%
20,Cc1cc(C)n2nc(C(=O)OCC(=O)N(CCC#N)c3ccc(F)cc3)nc2n1,19.6%
21,CC(c1ccccc1)n1c(-c2ccncc2)n[nH]c1=S (stereo not shown),8.79%
22,Cn1c(SCC(=O)c2ccccc2)nnc1C1COc2ccccc2O1 (stereo not shown),7.24%

row,Compound,"hERG current change (%, negative = inhibition) at 1uM"
1,O=C(NCCN1CCOCC1)c1ccc(/C=C2\Sc3ccccc3N(Cc3ccc(F)cc3)C2=O)cc1,14.3%
2,O=C(CCCOc1ccc(Cl)cc1Cl)Nc1ccncc1,2.47%
3,CC(C)Cn1c(N)c(C=O)c(=O)n(C)c1=O,8.96%
4,Cc1ccc(NC(=O)CSc2nccn2Cc2ccccc2)cc1C,-1.62%
5,Cc1ccccc1CCNC(=O)CCn1nc(C)c2c(C)n(-c3ccccc3)nc2c1=O,6.78%
6,NC(=O)C1CCN(C(=O)c2ccc(NS(=O)(=O)c3ccc(F)c(F)c3)cc2)CC1,6.65%
7,COc1ccc(NC(=O)CN(C)C(=O)c2ccc3c(c2)NC(=O)CS3)cc1,1.42%
8,O=C(Oc1ccc(N(Cc2cccs2)C2=NS(=O)(=O)c3ccccc32)cc1)c1ccc(Cl)cc1,7.78%
9,CC(C)CN(C(=O)COC(=O)CCN1C(=O)c2ccccc2C1=O)C1CCS(=O)(=O)C1 (stereo not shown),14.6%
10,CSc1nc2sc3c(c2c(=O)n1C)CCC3,11.4%
11,COc1ccc(S(=O)(=O)N(CC(=O)O)c2ccccn2)cc1,9.15%
12,CN1CCN(CC(=O)Nc2cc(N3CCOCC3)ccc2[N+](=O)[O-])CC1,6.69%
13,COc1ccc(/C=N/NC(=O)CNC(=O)c2cccs2)cc1,5.35%
14,CN1C(=O)CS(=O)c2ccc(C(=O)NC3CC3)cc21 (stereo not shown),22.1%
15,CCOc1ncccc1C(=O)N1CCN(S(=O)(=O)c2cccs2)CC1,7.41%
16,CC1CN(C(=O)C2CC2)C(C)CN1C(=O)C1CC1 (stereo not shown),4.7%
17,O=C(NCCN1CCc2ccccc2C1)C1CCN(S(=O)(=O)N2CCCCC2)CC1,-7.63%
18,COC(=O)c1c(NS(C)(=O)=O)sc2c1CCCC2,5.2%
19,COc1cccc(NC(=O)CSc2nc3ccccc3nc2N2CCCC2)c1,-0.785%
20,CC1CN(C2=N/C(=C/c3ccc4c(c3)OCO4)C(=O)N2)CC(C)O1 (stereo not shown),11.3%
21,COc1ccccc1-c1cc(C(=O)Nc2sc3c(c2C#N)CCC(C)C3)c2ccccc2n1 (stereo not shown),10.4%
